Assay results: the supplement of paper PMC5655136
Values come from read counts of a selection and are noisy.

These sequences were tested on NB7 (assay: fold depletion of shRNA, plasmid library share / infected cells without Dox share (9 days) (ratio); higher = more depleted after infection (more toxic, leaky expression from a Tet-inducible vector; NB7 is a neuroblastoma line without caspase-8)). Conditions: shRNA pool: CD95 ORF + CD95 3'UTR + Venus libraries.
Experimental: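 Pooled lethality screen in NB7 neuroblastoma cells infected with Dox-inducible pTIP shRNA libraries. The libraries tile every 21-mer of the Venus, CD95L or CD95 ORF / 3'UTR; each hairpin is the 21-nt sense sequence + CTCGAG loop + antisense. Cells were cultured 9 days with or without 100 ng/ml Dox. shRNA representation was measured by deep sequencing of the genomic inserts, normalised to the total reads per subpool and averaged over technical replicates. Fold depletion is the plasmid library share / infected cells without Dox share (mean of 2 biological replicates), and the -Dox/+Dox share ratio is the mean of 4 replicate pairings; higher values mean more depletion (toxicity).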
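Further: shRNA barcodes quantified by deep sequencing of PCR amplicons from cellular DNA, counts expressed as percent of each subpool, ratio averaged over two biological duplicates.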

Sequence | fold depletion of shRNA
AAAGGCTTTGTTCGAAAGAAT | 1.68
TGTCATGAACCCATGTTTGCA | 3.69
AGGAAAGCTAGGGACTGCACA | 27
GACCCGCGCCGAGGTGAAGTT | 0.524
AAAATAGATTCTTATTTTTCC | 0.897
GAAATATCACCAAAAAATACT | 1.03
CCTTGGTGCTCATCTTAATGG | 4.33
AAGTTAAAGGCTTTGTTCGAA | 1.19
AAAGCATTTTGAGCAGGAGAG | 1.12
GCTCGCCGACCACTACCAGCA | 1.68
AGCAGGAGAGTATTACTAGAG | 1.17
CAAATGCAGAAGATGTAGATT | 0.567
AGCTGACCCTGAAGCTGATCT | 1.93
TGTATGTTAGTACAAATGTCT | 0.9
AAGCAGAAGAACGGCATCAAG | 2.37
ATAGTCCACCAAAAGGCAAGA | 1.56
AAGCCAATCTTTGTACTCTTG | 1.2
ACTTTAAATCCTGAAACAGTG | 1.28
TATTTCTGTAAATGTAAACTG | 1.29
TTGATTAAAGATCTCAAAAAA | 1.16
TAGCAATGGTAAAATCATCAT | 1.44
TTTCAATTGTGAATTCACATA | 1.08

Sequence | fold depletion of shRNA
TTCAACTGCTTCGTAATTGGC | 14.7
GAGGACGGCAACATCCTGGGG | 0.848
GACTATTATATATGTGTATGC | 1.1
TGCAATCAAAGATGATAAAAT | 0.808
GCGCACCATCTTCTTCAAGGA | 1.74
AGAGAAAGGAAGTACAGAAAA | 0.599
GGAAGGAGTACACAGACAAAG | 1.02
CTTTGTCTTCTTCTTTTGCCA | 0.794
CAATTGTGAATTCACATAGAA | 0.825
ATGTGAACATGGAATCATCAA | 0.68
GTTCGAAAGAATGGTGTCAAT | 3.06
ATGAAGCCAAAATAGATGAGA | 1.92
AACAGTGGCAATAAATTTATC | 0.974
CCACAACATCGAGGACGGCGG | 1.18
ATATGATTCTGTAGTATGAAT | 1.1
GAGACTCAGAACTTGGAAGGC | 1.49
GACACATTGATTAAAGATCTC | 0.765
TTGTCATACCCCCAAGTTTCT | 2.55
ATGTGTATGCATTTTACTGGC | 3.11
TCGGCATGGACGAGCTGTACA | 1.91
ACCTCTGATAATTCTAGAGAT | 1.08
AAGTGACTGACATCAACTCCA | 2.12

Sequence | fold depletion of shRNA
GACCACATGAAGCAGCACGAC | 1.28
TACTCTTGCAGAGAAAATTCA | 0.854
TTTTGCCCCTTGTGTTTGGAA | 10.1
AGTTGGGAAAACAAACTTCAT | 0.895
GGTGGCTTTGTCTTCTTCTTT | 0.545
GGCGAGGGCGAGGGCGATGCC | 0.454
GCTTCGCCCGCTACCCCGACC | 1.61
CTAGTGACTCAGAAAATTCAA | 1.65
ATAATTCTAGAGATTTTACCA | 1.35
GAAGTTCGAGGGCGACACCCT | 0.672
GGACCCTCCTACCTCTGGTTC | 3.11
TCCTGGGGCACAAGCTGGAGT | 1.16
AAATAGATGAGATCAAGAATG | 1.15
TGCAATTAGTGTTTGAAAAGA | 0.948
TGAAACAGTGGCAATAAATTT | 1.24
ATTACTAGTGACTCAGAAAAT | 0.762
AAAATAGATGAGATCAAGAAT | 1.14
GAGTCATGACACTAAGTCAAG | 1.98
CAAAAGGCAAGACTGCCCTTA | 1.66
GCCATAAGCCCTGTCCTCCAG | 1.3
CTTGAGTAAATATATCACCAC | 0.583
GAAAAGATTCTTAATAGCTGG | 0.939
